Results as given in article PMC4336329 (PLoS ONE, 2015).
Screen size: about 310,000 compounds; about 2,200 (0.71%) showed an effect of 50% or more. Effects have a minus sign here. The list shows a part of the results.

Biological target: human ether-à-go-go-related gene (hERG) potassium channel (human, UniProt Q12809)
Assay: primary screen, population patch clamp on CHO cells stably expressing hERG

human ether-à-go-go-related gene (hERG) potassium channel, sequence (Q12809 whole entry, looked up): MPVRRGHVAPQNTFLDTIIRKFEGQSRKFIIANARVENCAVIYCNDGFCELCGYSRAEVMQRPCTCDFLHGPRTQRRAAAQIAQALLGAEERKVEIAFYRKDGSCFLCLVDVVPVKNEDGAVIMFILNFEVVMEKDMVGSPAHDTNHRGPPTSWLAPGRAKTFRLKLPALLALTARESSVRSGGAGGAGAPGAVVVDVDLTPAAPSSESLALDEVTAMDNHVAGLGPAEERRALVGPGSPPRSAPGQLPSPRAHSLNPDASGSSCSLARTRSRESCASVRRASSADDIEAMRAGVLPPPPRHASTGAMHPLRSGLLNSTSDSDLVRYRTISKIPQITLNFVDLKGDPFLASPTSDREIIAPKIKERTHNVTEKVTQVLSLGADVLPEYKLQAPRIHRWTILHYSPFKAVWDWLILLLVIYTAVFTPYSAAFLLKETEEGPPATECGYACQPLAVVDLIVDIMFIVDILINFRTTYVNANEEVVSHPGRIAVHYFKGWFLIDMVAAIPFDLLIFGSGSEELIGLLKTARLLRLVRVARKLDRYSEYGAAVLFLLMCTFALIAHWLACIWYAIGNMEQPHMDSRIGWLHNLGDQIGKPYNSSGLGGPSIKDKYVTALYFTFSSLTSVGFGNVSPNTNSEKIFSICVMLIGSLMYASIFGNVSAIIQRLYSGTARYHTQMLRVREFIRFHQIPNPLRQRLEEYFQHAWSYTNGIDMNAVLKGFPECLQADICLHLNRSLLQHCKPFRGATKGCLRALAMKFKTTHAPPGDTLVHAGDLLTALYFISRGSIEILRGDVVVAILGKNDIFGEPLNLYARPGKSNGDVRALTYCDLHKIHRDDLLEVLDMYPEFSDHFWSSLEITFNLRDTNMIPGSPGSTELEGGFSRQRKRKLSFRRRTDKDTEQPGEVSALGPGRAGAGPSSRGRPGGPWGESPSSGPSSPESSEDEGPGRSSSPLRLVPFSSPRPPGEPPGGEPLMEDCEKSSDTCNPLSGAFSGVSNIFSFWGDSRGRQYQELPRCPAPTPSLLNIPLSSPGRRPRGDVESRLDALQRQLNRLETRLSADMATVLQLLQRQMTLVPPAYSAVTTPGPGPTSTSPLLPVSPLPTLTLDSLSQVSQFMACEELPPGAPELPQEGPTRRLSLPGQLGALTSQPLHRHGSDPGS

Going from `Cc1cccc(CCN(C(=O)c2csnn2)C(C(=O)NC2CCCC2)c2ccco2)c1` (centres unmarked) to `O=C(c1cc(COc2ccc(F)cc2F)on1)N1CCN(C(=O)c2ccco2)CC1`, the “hERG current change (%, negative = inhibition) at 1uM” value falls from -2.28% to -17.6%.

Going from `O=C(CSc1nnc(C2CC2)n1Cc1ccco1)NCC(F)(F)F` to `COC(=O)c1ccc(CSc2nnc3c(Cl)cc(Cl)cn23)o1`, the “hERG current change (%, negative = inhibition) at 1uM” value falls from 14.9% to 13.8%.

Compared with `O=C1c2ccccc2C(=O)N1CN(C(=O)COc1ccccc1)c1ccc(F)cc1`, `Cc1cccc(C2Nc3ccccc3C(=O)N2c2ccc(F)cc2)n1` (centres unmarked) is lower in “hERG current change (%, negative = inhibition) at 1uM” value: 10.7% for the first, -10.1% for the second.

Going from `COC(=O)c1sccc1NS(=O)(=O)c1ccc(OC)cc1` to `COc1ccc(NS(=O)(=O)c2ccc(NC(=O)C(CCSC)NC(N)=O)cc2)cc1` (centres unmarked), the “hERG current change (%, negative = inhibition) at 1uM” value rises from -1.68% to 16.6%.

Compared with `C1=CN2CCC1C(c1ccccc1)C2.Cl` (centres unmarked), `O=C(NC1CCCc2ccccc21)c1cncc(Br)c1` (centres unmarked) is higher in “hERG current change (%, negative = inhibition) at 1uM” value: 10.2% for the first, 11% for the second.

First: O=C(CN1CCN(c2ccccc2F)CC1)c1c[nH]c2ccccc12
Second: Cc1cc2cc(C(=O)N3CCc4c([nH]c5ccccc45)C3c3ccccn3)ccc2o1 (centres unmarked)
The “hERG current change (%, negative = inhibition) at 1uM” value of the first is lower: 10% for the first, 13.2% for the second.

First: COc1ccc(C#Cc2ccc3c(c2)c(=O)c2ccccc2n3C)cc1
Second: COc1cc(OC)cc(-c2c(C#Cc3ccsc3)c3cc(-c4ccc(C(N)=O)cc4)ccc3n2C)c1
The “hERG current change (%, negative = inhibition) at 1uM” value of the first is lower: 14.2% for the first, 18.1% for the second.

Compared with `C/C(=N\Nc1cc(C(F)(F)F)ccc1Cl)c1ccccc1O`, `Cc1ccc(S(=O)(=O)NNc2nc3ccccc3nc2C(F)(F)F)cc1` is lower in “hERG current change (%, negative = inhibition) at 1uM” value: 11.5% for the first, 10.4% for the second.

First: CCC(=O)OCc1c(C(F)(F)F)nn(C)c1Sc1ccc(Cl)cc1
Second: C=C1CCN([C@@H](CC(C)C)C(=O)NCc2ccc(Cl)cc2)S(=O)(=O)c2ccccc21
The “hERG current change (%, negative = inhibition) at 1uM” value of the first is lower: 6.95% for the first, 16.5% for the second.

First: Cc1ccc(S(=O)(=O)CC(=O)Nc2cccc(C)n2)cc1
Second: COc1ccc(OCCNS(=O)(=O)Cc2ccccc2)cc1
The “hERG current change (%, negative = inhibition) at 1uM” value of the first is higher: 9.16% for the first, 5.16% for the second.

Going from `CCC(COC(=O)Nc1ccccc1)NC(=O)OC(C)C` (centres unmarked) to `CCNC(=O)NC(=O)C(C)OC(=O)CCCc1nc2ccccc2s1` (centres unmarked), the “hERG current change (%, negative = inhibition) at 1uM” value rises from 6.87% to 13.9%.

First: CCCCCc1cc(=O)oc2c(C(CCN3CCN(c4ccccc4)CC3)c3ccc(N(C)C)cc3)c(OC)cc(OC)c12 (centres unmarked)
Second: CCOC(=O)c1ccc(-c2c(-c3ccccc3OC)sc3cc4c(cc23)OCO4)cc1F
The “hERG current change (%, negative = inhibition) at 1uM” value of the first is lower: 7.79% for the first, 13.5% for the second.

First: Cc1ccc(C(C)C)cc1OCCN1CCCC1
Second: CCc1cccc(OCCOCCN2CCCC2)c1.O=C(O)C(=O)O
The “hERG current change (%, negative = inhibition) at 1uM” value of the first is higher: -2.61% for the first, -17.6% for the second.

Going from `CC(C)CNC(=O)C(=O)NCCCN1CCOCC1` to `Cc1ccc(S(=O)(=O)c2nnn3c2nc(N2CCOCC2)c2ccccc23)cc1C`, the “hERG current change (%, negative = inhibition) at 1uM” value rises from -2.49% to 14.6%.

Compared with `O=C(c1ccc(OC2CCN(Cc3cccc(OCCO)c3)CC2)cc1)N1CCCC1`, `CCOc1ccc(NC(=O)NCC2CCN(Cc3ccc(F)cc3)CC2)cc1` is lower in “hERG current change (%, negative = inhibition) at 1uM” value: 1.86% for the first, -18.3% for the second.

Compared with `COc1ccc(SCc2noc(C(=O)NC(C)C)c2C(=O)O)cc1`, `Cc1ccc(SCc2nc(N)nc(Nc3ccccc3C)n2)cc1C` is lower in “hERG current change (%, negative = inhibition) at 1uM” value: 12.4% for the first, 10.5% for the second.

Going from `COc1ccc2c(c1OC)C(=O)OC2Nc1nc(-c2cc3ccccc3oc2=O)cs1` (centres unmarked) to `CCC1(C(=O)OC)CCc2c(cc(OC)c3ccccc23)C1=O` (centres unmarked), the “hERG current change (%, negative = inhibition) at 1uM” value rises from 4.4% to 7.96%.

First: O=C(N/N=C/c1ccsc1)c1ccccn1
Second: O=C(Nn1c(COc2ccccc2)nc2ccccc2c1=O)C(Cl)(Cl)Cl
The “hERG current change (%, negative = inhibition) at 1uM” value of the first is higher: 16.7% for the first, 8.75% for the second.

First: Cn1c(CN2CCN(C(=O)c3ccc(F)cc3)CC2)nc2cc([N+](=O)[O-])ccc21
Second: COc1ccc2nc(N3CCCC3)[nH]c2c1.Cl
The “hERG current change (%, negative = inhibition) at 1uM” value of the first is lower: -59.1% for the first, 7.5% for the second.

Compared with `N#CCSc1ccccc1NC(=O)COc1ccc(-c2nnco2)cc1`, `N#Cc1ccc(Oc2ccc(-c3nc4ccccc4nc3-c3ccccc3)cc2)cc1C#N` is higher in “hERG current change (%, negative = inhibition) at 1uM” value: -24.5% for the first, 12.6% for the second.

Going from `CCc1ccccc1N1CC23C=CC(O2)C(C(=O)O)C3C1=O` (centres unmarked) to `CCOC(=O)c1c(C)oc2c1c(C=NC1CCS(=O)(=O)C1)c(O)c1ccccc12` (centres unmarked), the “hERG current change (%, negative = inhibition) at 1uM” value falls from 8% to 1.48%.

Going from `O=C(NCC1CC1)Nc1cccs1` to `O=C(Cc1ccc(Cl)c(Cl)c1)OCC(=O)c1ccc[nH]1`, the “hERG current change (%, negative = inhibition) at 1uM” value falls from 15.4% to 8.79%.
